Assay results as given in article PMC9911399, “Two distinct binding modes provide the RNA-binding protein RbFox with extraordinary sequence specificity”.
Substitutions are numbered along the chain they refer to; changes in the protein carry UniProt numbers. The list shows a part of the results.

T1: RBFOX1 RRM (Homo sapiens, UniProt Q9NWB1 109-208)
T1 sequence: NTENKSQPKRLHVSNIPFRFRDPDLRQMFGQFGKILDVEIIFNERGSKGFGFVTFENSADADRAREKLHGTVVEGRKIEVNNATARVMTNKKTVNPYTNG

B1: GCCUGGC (DNA:RNA)
RNA: GGGAGACCGGAAUUCAGAUUGUCCGCCUGGCUUAAAUCCCGUCGUAGCCACCA
DNA 1: CAATCTGAATTCCGGTCTCCC
DNA 2: TGGTGGCTACGACGGGATT
B2: CAUAUGU (DNA:RNA)
RNA: B1 RNA with G25C, C26A, C27U, U28A, G29U, C31U
DNA 1: CAATCTGAATTCCGGTCTCCC
DNA 2: TGGTGGCTACGACGGGATT
B3: CAUAGAC (DNA:RNA)
RNA: B1 RNA with G25C, C26A, C27U, U28A, G30A
DNA 1: CAATCTGAATTCCGGTCTCCC
DNA 2: TGGTGGCTACGACGGGATT
B4: AUAUAAG (DNA:RNA)
RNA: B1 RNA with G25A, C26U, C27A, G29A, G30A, C31G
DNA 1: CAATCTGAATTCCGGTCTCCC
DNA 2: TGGTGGCTACGACGGGATT
B5: GGUAGAA (DNA:RNA)
RNA: B1 RNA with C26G, C27U, U28A, G30A, C31A
DNA 1: CAATCTGAATTCCGGTCTCCC
DNA 2: TGGTGGCTACGACGGGATT
B6: AAUGCUA (DNA:RNA)
RNA: GGGAGACCGGAAUUCAGAUUGUCCAAUGCUAUUAAAUCCCGUCGUAGCCACCA
DNA 1: CAATCTGAATTCCGGTCTCCC
DNA 2: TGGTGGCTACGACGGGATT
B7: UAUACCA (DNA:RNA)
RNA: B6 RNA with A25U, G28A, U30C
DNA 1: CAATCTGAATTCCGGTCTCCC
DNA 2: TGGTGGCTACGACGGGATT
B8: AGGUUAC (DNA:RNA)
RNA: B1 RNA with G25A, C26G, C27G, G29U, G30A
DNA 1: CAATCTGAATTCCGGTCTCCC
DNA 2: TGGTGGCTACGACGGGATT
B9: GUGGCGA (DNA:RNA)
RNA: B6 RNA with A25G, A26U, U27G, U30G
DNA 1: CAATCTGAATTCCGGTCTCCC
DNA 2: TGGTGGCTACGACGGGATT
B10: AAAUCAU (DNA:RNA)
RNA: B6 RNA with U27A, G28U, U30A, A31U
DNA 1: CAATCTGAATTCCGGTCTCCC
DNA 2: TGGTGGCTACGACGGGATT
B11: AGGCUUG (DNA:RNA)
RNA: B6 RNA with A26G, U27G, G28C, C29U, A31G
DNA 1: CAATCTGAATTCCGGTCTCCC
DNA 2: TGGTGGCTACGACGGGATT
B12: UUCGGCG (DNA:RNA)
RNA: B1 RNA with G25U, C26U, U28G, G30C, C31G
DNA 1: CAATCTGAATTCCGGTCTCCC
DNA 2: TGGTGGCTACGACGGGATT
B13: AUUUCAU (DNA:RNA)
RNA: B6 RNA with A26U, G28U, U30A, A31U
DNA 1: CAATCTGAATTCCGGTCTCCC
DNA 2: TGGTGGCTACGACGGGATT
B14: AGGUGCA (DNA:RNA)
RNA: B6 RNA with A26G, U27G, G28U, C29G, U30C
DNA 1: CAATCTGAATTCCGGTCTCCC
DNA 2: TGGTGGCTACGACGGGATT
B15: AGCGUGA (DNA:RNA)
RNA: B6 RNA with A26G, U27C, C29U, U30G
DNA 1: CAATCTGAATTCCGGTCTCCC
DNA 2: TGGTGGCTACGACGGGATT
B16: CUCGUAC (DNA:RNA)
RNA: B1 RNA with G25C, C26U, U28G, G29U, G30A
DNA 1: CAATCTGAATTCCGGTCTCCC
DNA 2: TGGTGGCTACGACGGGATT
B17: GUGAGCG (DNA:RNA)
RNA: B1 RNA with C26U, C27G, U28A, G30C, C31G
DNA 1: CAATCTGAATTCCGGTCTCCC
DNA 2: TGGTGGCTACGACGGGATT
B18: UACGACC (DNA:RNA)
RNA: B6 RNA with A25U, U27C, C29A, U30C, A31C
DNA 1: CAATCTGAATTCCGGTCTCCC
DNA 2: TGGTGGCTACGACGGGATT
B19: GAGUUUC (DNA:RNA)
RNA: B1 RNA with C26A, C27G, G29U, G30U
DNA 1: CAATCTGAATTCCGGTCTCCC
DNA 2: TGGTGGCTACGACGGGATT
B20: ACAGCGC (DNA:RNA)
RNA: B6 RNA with A26C, U27A, U30G, A31C
DNA 1: CAATCTGAATTCCGGTCTCCC
DNA 2: TGGTGGCTACGACGGGATT
B21: UGUGAAC (DNA:RNA)
RNA: B6 RNA with A25U, A26G, C29A, U30A, A31C
DNA 1: CAATCTGAATTCCGGTCTCCC
DNA 2: TGGTGGCTACGACGGGATT
B22: UUAAAAA (DNA:RNA)
RNA: B6 RNA with A25U, A26U, U27A, G28A, C29A, U30A
DNA 1: CAATCTGAATTCCGGTCTCCC
DNA 2: TGGTGGCTACGACGGGATT
B23: AGCAGCC (DNA:RNA)
RNA: B1 RNA with G25A, C26G, U28A, G30C
DNA 1: CAATCTGAATTCCGGTCTCCC
DNA 2: TGGTGGCTACGACGGGATT
B24: ACCCUUA (DNA:RNA)
RNA: B6 RNA with A26C, U27C, G28C, C29U
DNA 1: CAATCTGAATTCCGGTCTCCC
DNA 2: TGGTGGCTACGACGGGATT
B25: CGUUGUU (DNA:RNA)
RNA: B6 RNA with A25C, A26G, G28U, C29G, A31U
DNA 1: CAATCTGAATTCCGGTCTCCC
DNA 2: TGGTGGCTACGACGGGATT
B26: AUACCGA (DNA:RNA)
RNA: B6 RNA with A26U, U27A, G28C, U30G
DNA 1: CAATCTGAATTCCGGTCTCCC
DNA 2: TGGTGGCTACGACGGGATT
B27: AAAUCGU (DNA:RNA)
RNA: B6 RNA with U27A, G28U, U30G, A31U
DNA 1: CAATCTGAATTCCGGTCTCCC
DNA 2: TGGTGGCTACGACGGGATT
B28: ACUCUGC (DNA:RNA)
RNA: B1 RNA with G25A, C27U, U28C, G29U
DNA 1: CAATCTGAATTCCGGTCTCCC
DNA 2: TGGTGGCTACGACGGGATT
B29: CACAAUU (DNA:RNA)
RNA: B6 RNA with A25C, U27C, G28A, C29A, A31U
DNA 1: CAATCTGAATTCCGGTCTCCC
DNA 2: TGGTGGCTACGACGGGATT
B30: UAUCUUU (DNA:RNA)
RNA: B6 RNA with A25U, G28C, C29U, A31U
DNA 1: CAATCTGAATTCCGGTCTCCC
DNA 2: TGGTGGCTACGACGGGATT
B31: CACAUUA (DNA:RNA)
RNA: B6 RNA with A25C, U27C, G28A, C29U
DNA 1: CAATCTGAATTCCGGTCTCCC
DNA 2: TGGTGGCTACGACGGGATT

The binders below were run against T1, RBFOX1 RRM (assay: EMSA; HiTS-Eq, 1 nM pool, 10 min; buffer printed only for the single-RNA assays: 10 mM Tris pH 7.5, 150 mM NaCl, 3.4 mM EDTA, 0.001% NP-40, 30 C). Conditions: tags: His6 N-terminal (pET28a); label: 5' 32P.
Summary of the method: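 Relative association constants, normalised to the cognate motif, were derived by comparing read counts of each RNA species with those of the control reaction. The RNA sequenced was the free fraction, separated by 8% native PAGE after a 10 min equilibration in 50 µL of 1 nM 5′-radiolabelled RNA (7 randomized nucleotides) with increasing concentrations of purified wild-type or mutant RbFox RRM.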

Binder | binding signal
B1 | 0.0234 KA relative to UGCAUGU
B2 | 0.00576 KA relative to UGCAUGU
B3 | 0.00466 KA relative to UGCAUGU
B4 | 0.00356 KA relative to UGCAUGU
B5 | 0.0124 KA relative to UGCAUGU
B6 | 0.00665 KA relative to UGCAUGU
B7 | 0.00634 KA relative to UGCAUGU
B8 | 0.00822 KA relative to UGCAUGU
B9 | 0.0208 KA relative to UGCAUGU
B10 | 0.000849 KA relative to UGCAUGU
B11 | 0.0346 KA relative to UGCAUGU
B12 | 0.0185 KA relative to UGCAUGU
B13 | 0.00614 KA relative to UGCAUGU
B14 | 0.0203 KA relative to UGCAUGU
B15 | 0.0138 KA relative to UGCAUGU
B16 | 0.00737 KA relative to UGCAUGU

Binder | binding signal
B17 | 0.0226 KA relative to UGCAUGU
B18 | 0.00362 KA relative to UGCAUGU
B19 | 0.0233 KA relative to UGCAUGU
B20 | 0.00527 KA relative to UGCAUGU
B21 | 0.0154 KA relative to UGCAUGU
B22 | 0.00182 KA relative to UGCAUGU
B23 | 0.00568 KA relative to UGCAUGU
B24 | 0.000897 KA relative to UGCAUGU
B25 | 0.0141 KA relative to UGCAUGU
B26 | 0.00279 KA relative to UGCAUGU
B27 | 0.00255 KA relative to UGCAUGU
B28 | 0.00588 KA relative to UGCAUGU
B29 | 0.000253 KA relative to UGCAUGU
B30 | 0.00872 KA relative to UGCAUGU
B31 | 0.00115 KA relative to UGCAUGU
